Read-outs that look alike come from different tables or passages of the source.
Legend:
[1] = target: maltose-binding protein (MBP)-tagged full-length human DDX6 (human) (UniProt P26196); experiment: pull-down
[2] = target: maltose-binding protein (MBP)-tagged full-length human DDX6 (human) (UniProt P26196); experiment: pull-down; remark: listed apart in the source

Chain of UniProt P26196 (P26196 whole entry): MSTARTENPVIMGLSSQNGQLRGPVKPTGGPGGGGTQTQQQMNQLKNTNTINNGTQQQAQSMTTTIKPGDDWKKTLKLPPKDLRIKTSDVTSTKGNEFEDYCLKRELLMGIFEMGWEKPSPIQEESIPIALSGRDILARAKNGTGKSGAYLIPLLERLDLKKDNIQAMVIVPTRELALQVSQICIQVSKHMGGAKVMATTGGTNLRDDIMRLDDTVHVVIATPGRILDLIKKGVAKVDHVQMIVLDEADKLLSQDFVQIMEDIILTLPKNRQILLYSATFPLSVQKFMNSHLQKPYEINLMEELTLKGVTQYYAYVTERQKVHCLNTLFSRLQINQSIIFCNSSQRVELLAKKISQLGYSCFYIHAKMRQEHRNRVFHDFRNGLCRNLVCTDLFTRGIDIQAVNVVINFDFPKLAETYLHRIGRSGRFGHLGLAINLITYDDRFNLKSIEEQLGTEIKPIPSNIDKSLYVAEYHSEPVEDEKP

human CNOT1 (endogenous, cell lysate) (a stretch of the chain, chain not printed) (natural protein)
percent of input coprecipitated [1]: < 1 % input
percent of input coprecipitated [2]: < 1 % input

— PMC4138323
